# The list shows a part of the results.
# B1: SRA-1 (Homo sapiens), P21757 (protein)
# chain: MEQWDHFHNQQEDTDSCSESVKFDARSMTALLPPNPKNSPSLQEKLKSFKAALIALYLLVFAVLIPLIGIVAAQLLKWETKNCSVSSTNANDITQSLTGKGNDSEEEMRFQEVFMEHMSNMEKRIQHILDMEANLMDTEHFQNFSMTTDQRFNDILLQLSTLFSSVQGHGNAIDEISKSLISLNTTLLDLQLNIENLNGKIQENTFKQQEEISKLEERVYNVSAEIMAMKEEQVHLEQEIKGEVKVLNNITNDLRLKDWEHSQTLRNITLIQGPPGPPGEKGDRGPTGESGPRGFPGPIGPPGLKGDRGAIGFPGSRGLPGYAGRPGNSGPKGQKGEKGSGNTLTPFTKVRLVGGSGPHEGRVEILHSGQWGTICDDRWEVRVGQVVCRSLGYPGVQAVHKAAHFGQGTGPIWLNEVFCFGRESSIEECKIRQWGTRACSHSEDAGVTCTL
# Experiments:
# Test in all cases: glycan array binding signal (z-score within array); higher = stronger binding
# Settings in all cases: glycan notation: IUPAC condensed, linker removed
# [1] = molecular target: Gal(b1-4)GlcNAc(b1-3)Gal(b1-4)GlcNAc(b1-3)[Gal(b1-4)GlcNAc(b1-3)Gal(b1-4)GlcNAc(b1-6)]GalNAc
# Outline: (§1)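 Glycan array binding is given as a within-array Z-score, which can be read as non-binding when negative. The arrays, 3228 of them, came from the Consortium for Functional Glycomics database and were retained only where the protein sequence was available. Z-scores were averaged across arrays of the same protein sequence at different concentrations or buffers and across linkers.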
# [2] = molecular target: Gal(b1-4)GlcNAc(b1-3)Gal(b1-4)GlcNAc(b1-6)[Gal(b1-3)]GalNAc
# Outline: as §1
# [3] = molecular target: Gal(b1-4)GlcNAc(b1-3)Gal(b1-4)[Fuc(a1-3)]GlcNAc(b1-3)Gal(b1-4)[Fuc(a1-3)]GlcNAc
# Outline: as §1
# [4] = molecular target: Gal(b1-4)GlcNAc(b1-3)GalNAc
# Outline: as §1
# [5] = molecular target: Gal(b1-4)GlcNAc(b1-3)[Fuc(a1-3)GlcNAc(b1-6)]Gal(b1-4)Glc
# Outline: as §1
# [6] = molecular target: Gal(b1-4)GlcNAc(b1-3)[Gal(b1-4)GlcNAc(b1-6)]Gal(b1-4)GlcNAc
# Outline: as §1
# [7] = molecular target: Gal(b1-4)GlcNAc(b1-3)[GlcNAc(b1-6)]Gal(b1-4)GlcNAc
# Outline: as §1
# [8] = molecular target: Gal(b1-4)GlcNAc(b1-6)Gal(b1-4)GlcNAc
# Outline: as §1
# [9] = molecular target: Gal(b1-4)GlcNAc(b1-6)GalNAc
# Outline: as §1
# [10] = molecular target: Gal(b1-4)GlcNAc(b1-6)[Gal(b1-3)]GalNAc
# Outline: as §1
# [11] = molecular target: Gal(b1-4)GlcNAc(b1-6)[Gal(b1-4)GlcNAc(b1-3)]GalNAc
# Outline: as §1
# Gal(b1-4)GlcNAc6P = molecular target: Gal(b1-4)GlcNAc6P
# Outline: as §1
# Gal(b1-6)Gal = molecular target: Gal(b1-6)Gal
# Outline: as §1
# Gal3S(b1-3)GalNAc = molecular target: Gal3S(b1-3)GalNAc
# Outline: as §1
# Gal3S(b1-3)GlcNAc = molecular target: Gal3S(b1-3)GlcNAc
# Outline: as §1
# [12] = molecular target: Gal3S(b1-3)[Fuc(a1-4)]GlcNAc
# Outline: as §1
# Gal3S(b1-4)Glc = molecular target: Gal3S(b1-4)Glc
# Outline: as §1
# Gal3S(b1-4)Glc6S = molecular target: Gal3S(b1-4)Glc6S
# Outline: as §1
# Gal3S(b1-4)GlcNAc = molecular target: Gal3S(b1-4)GlcNAc
# Outline: as §1
# [13] = molecular target: Gal3S(b1-4)[Fuc(a1-3)]Glc6S
# Outline: as §1
# [14] = molecular target: Gal3S(b1-4)[Fuc(a1-3)]GlcNAc
# Outline: as §1
# [15] = molecular target: Gal3S(b1-4)[Fuc(a1-3)]GlcNAc6S
# Outline: as §1
# Gal3S4S(b1-4)GlcNAc = molecular target: Gal3S4S(b1-4)GlcNAc
# Outline: as §1
# Gal3S6S(b1-4)GlcNAc = molecular target: Gal3S6S(b1-4)GlcNAc
# Outline: as §1
# Gal3S6S(b1-4)GlcNAc6S = molecular target: Gal3S6S(b1-4)GlcNAc6S
# Outline: as §1
# Gal4S(b1-4)GlcNAc = molecular target: Gal4S(b1-4)GlcNAc
# Outline: as §1
# Gal4S6S(b1-4)GlcNAc = molecular target: Gal4S6S(b1-4)GlcNAc
# Outline: as §1
# Gal6P(b1-4)GlcNAc = molecular target: Gal6P(b1-4)GlcNAc
# Outline: as §1
# Gal6S(b1-3)GlcNAc = molecular target: Gal6S(b1-3)GlcNAc
# Outline: as §1
# Gal6S(b1-3)GlcNAc6S = molecular target: Gal6S(b1-3)GlcNAc6S
# Outline: as §1
# Gal6S(b1-4)Glc = molecular target: Gal6S(b1-4)Glc
# Outline: as §1
# Gal6S(b1-4)Glc6S = molecular target: Gal6S(b1-4)Glc6S
# Outline: as §1
# Gal6S(b1-4)GlcNAc = molecular target: Gal6S(b1-4)GlcNAc
# Outline: as §1
# Gal6S(b1-4)GlcNAc6S = molecular target: Gal6S(b1-4)GlcNAc6S
# Outline: as §1
# GalNAc(a1-3)Gal = molecular target: GalNAc(a1-3)Gal
# Outline: as §1
# GalNAc(a1-3)GalNAc = molecular target: GalNAc(a1-3)GalNAc
# Outline: as §1
# [16] = molecular target: GalNAc(a1-3)GalNAc(b1-3)Gal(a1-4)Gal(b1-4)Glc
# Outline: as §1
# [17] = molecular target: GalNAc(a1-3)GalNAc(b1-3)Gal(a1-4)Gal(b1-4)GlcNAc
# Outline: as §1
# GalNAc(b1-3)Gal = molecular target: GalNAc(b1-3)Gal
# Outline: as §1
# [18] = molecular target: GalNAc(b1-3)Gal(a1-4)Gal(b1-4)GlcNAc
# Outline: as §1
# [19] = molecular target: GalNAc(b1-3)Gal(a1-4)Gal(b1-4)GlcNAc(b1-3)Gal(b1-4)Glc
# Outline: as §1
# [20] = molecular target: GalNAc(b1-3)Gal(a1-6)Gal(b1-4)Glc
# Outline: as §1
# GalNAc(b1-3)GalNAc = molecular target: GalNAc(b1-3)GalNAc
# Outline: as §1
# GalNAc(b1-3)GlcNAc = molecular target: GalNAc(b1-3)GlcNAc
# Outline: as §1
# GalNAc(b1-4)Gal(b1-4)Glc = molecular target: GalNAc(b1-4)Gal(b1-4)Glc
# Outline: as §1
binder,measurement,setting,value
B1,glycan array binding signal (z-score),[1],0.16
same,glycan array binding signal (z-score),[2],-0.129
same,glycan array binding signal (z-score),[3],-0.72
same,glycan array binding signal (z-score),[4],0.007
same,glycan array binding signal (z-score),[5],-0.099
same,glycan array binding signal (z-score),[6],0.025
same,glycan array binding signal (z-score),[7],-0.233
same,glycan array binding signal (z-score),[8],-0.121
same,glycan array binding signal (z-score),[9],0.967
same,glycan array binding signal (z-score),[10],0.284
same,glycan array binding signal (z-score),[11],-0.137
same,glycan array binding signal (z-score),Gal(b1-4)GlcNAc6P,-0.237
same,glycan array binding signal (z-score),Gal(b1-6)Gal,-0.038
same,glycan array binding signal (z-score),Gal3S(b1-3)GalNAc,0.526
same,glycan array binding signal (z-score),Gal3S(b1-3)GlcNAc,0.811
same,glycan array binding signal (z-score),[12],0.174
same,glycan array binding signal (z-score),Gal3S(b1-4)Glc,0.106
same,glycan array binding signal (z-score),Gal3S(b1-4)Glc6S,0.186
same,glycan array binding signal (z-score),Gal3S(b1-4)GlcNAc,0.181
same,glycan array binding signal (z-score),[13],0.672
same,glycan array binding signal (z-score),[14],0.263
same,glycan array binding signal (z-score),[15],0.304
same,glycan array binding signal (z-score),Gal3S4S(b1-4)GlcNAc,0.065
same,glycan array binding signal (z-score),Gal3S6S(b1-4)GlcNAc,0.399
same,glycan array binding signal (z-score),Gal3S6S(b1-4)GlcNAc6S,0.189
same,glycan array binding signal (z-score),Gal4S(b1-4)GlcNAc,-0.198
same,glycan array binding signal (z-score),Gal4S6S(b1-4)GlcNAc,-0.23
same,glycan array binding signal (z-score),Gal6P(b1-4)GlcNAc,0.22
same,glycan array binding signal (z-score),Gal6S(b1-3)GlcNAc,-0.15
same,glycan array binding signal (z-score),Gal6S(b1-3)GlcNAc6S,-0.393
same,glycan array binding signal (z-score),Gal6S(b1-4)Glc,0.392
same,glycan array binding signal (z-score),Gal6S(b1-4)Glc6S,-0.142
same,glycan array binding signal (z-score),Gal6S(b1-4)GlcNAc,0.335
same,glycan array binding signal (z-score),Gal6S(b1-4)GlcNAc6S,-0.028
same,glycan array binding signal (z-score),GalNAc(a1-3)Gal,0.136
same,glycan array binding signal (z-score),GalNAc(a1-3)GalNAc,0.339
same,glycan array binding signal (z-score),[16],-0.393
same,glycan array binding signal (z-score),[17],0.272
same,glycan array binding signal (z-score),GalNAc(b1-3)Gal,-0.386
same,glycan array binding signal (z-score),[18],1.15
same,glycan array binding signal (z-score),[19],-0.081
same,glycan array binding signal (z-score),[20],-0.372
same,glycan array binding signal (z-score),GalNAc(b1-3)GalNAc,0.296
same,glycan array binding signal (z-score),GalNAc(b1-3)GlcNAc,0.258
same,glycan array binding signal (z-score),GalNAc(b1-4)Gal(b1-4)Glc,-0.126

# Reference: the supplement of paper PMC8728848
